Laboratory results taken from patent US20250345445A1, “ANTIBODY-DRUG CONJUGATE AND USE THEREOF” (CSPC MEGALITH BIOPHARMACEUTICAL CO., LTD., priority 2021, published 2025).

Key:
[1] = tested on: DiFi (human colorectal cancer cells); test: Proliferation inhibition, DiFi cells (MTT, […]); format: cell-based; details: […] drug exposure
Description: The specific concentration settings were as follows:
Cells in logarithmic growth phase were seeded in a 96-well plate (100 μL/well) at a certain number. […] Three replicate wells were set for each drug concentration, along with corresponding blank wells (only containing culture medium) and normal wells (drug concentration of 0). […] The plates were incubated at 37° C. for 4 hours, and then the supernatant was discarded. DMSO (analytical grade) was added (150 μL per well), and the plates were shaken on a microplate shaker to mix thoroughly. The plates were then wiped clean, and the optical density (OD) was measured at 550 nm using the microplate reader.
The inhibition rate of the cell growth was calculated with the following equation:
Inhibition Rate(%)=(OD Valuenormal well-OD Valuedrug well)/(OD Valuenormal well-OD Valueblank well)×100%
Based on the inhibition rates at different concentrations, the half-maximal inhibitory concentration (IC50) of the drug was calculated using SPSS 19.0. The results are shown in Tables 2 and 3, and FIGS. 17 and 18.

[2] = tested on: human lung adenocarcinoma PC9-GR (gefitinib-resistant cell) xenograft tumour; test: Assay 5: efficacy of SWY2110-ADC on PC9-GR xenograft tumour; format: in vivo, NU/NU mice; details: 1 mg/kg i.v./qw*4 w
Text: The assay was terminated on day 28 after the administration.

IC50 value [1]: 0.04394 µg/mL
B1: SWY2110: EGFR antibody; heavy chains SEQ ID NO:29, light chains SEQ ID NO:30 (antibody)
heavy: QVQLQESGPGLVKPSETLSLTCTVSGFSLSNYDVHWVRQAPGKGLEWLGVIWSGGNTDYNTPFTSRLTISVDTSKNQFSLKLSSVTAADTAVYYCARALDYYDYEFAYWGQGTLVTVSSASTKGPSVFPLAPSSKSTSGGTAALGCLVKDYFPEPVTVSWNSGALTSGVHTFPAVLQSSGLYSLSSVVTVPSSSLGTQTYICNVNHKPSNTKVDKRV[here human IgG1 Fc without letters]
light: EIVLTQSPDFQSVTPKEKVTITCRASQSIGTNIHWYQQKPDQSPKLLIKYASESISGIPSRFSGSGSGTDFTLTINSLEAEDAATYYCQQNNEWPTSFGQGTKLEIKRTVAAPSVFIFPPSDEQLKSGTASVVCLLNNFYPREAKVQWKVDNALQSGNSQESVTEQDSKDSTYSLSSTLTLSKADYEKHKVYACEVTHQGLSSPVTKSFNRGEC
TGI(%) Day 28 [2]: 20.3%
Tumour Volume ([2]; 28 days after administration): 628.9 ± 290.0 mm^3
